# Experimental data taken from PubChem BioAssay AID686979 (National Center for Advancing Translational Sciences (NCATS), 2013).
# Where “and” joins values, the source holds several entries; their conditions need not be identical. Equal values may be shown once. The campaign covered roughly 420,000 compounds. About 50,000 (12%) were called active. The shares of active, inactive and inconclusive entries below differ from those in the screen. Calls follow the shape of the dose curve; as a rule, active = well fitted inhibition curve with a large enough effect; inconclusive = small, poorly fitted or top-dose-only effect; inactive = flat fitted curve, though single readings scatter. A potency beside an inconclusive call is a rough fit, not a confirmed value.
# Assay: qHTS for Inhibitors of human tyrosyl-DNA phosphodiesterase 1 (TDP1): qHTS in cells in presence of CPT; also: nearly all actives have a fitted effect of over 55% in size
# Settings: chicken DT40 Tdp1-/-;hTDP1 cells + 20 nM CPT, ATP luminescence, 48 h; series mostly up to 46.2 µM
# Summary of the method: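 Cell growth measured by CellTiter-Glo luminescence after a minimum 48 h, 37 C compound exposure with 20 nM CPT in Tdp1-knockout DT40 cells stably expressing hTDP1, seeded 400/well; qHTS titration format.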
# Potency is read from the fitted curve at half-maximal effect; tags tell the direction and shape of the fitted curve.
row,SMILES,Potency
1,Cn1nc(C(F)(F)F)c2cc(C(=O)Nc3ccc(C(F)(F)F)cc3)sc21,"inconclusive: 18.4 µM [inhibitor, single point]"
2,O=C(NCCCN1CCCC1=O)Nc1ccccc1F,inactive
3,COc1ccc(C(=O)c2c3ccc(OC)cc3[n+]([O-])n2Cc2ccc(C(N)=O)cc2)cc1,"inconclusive: 29.1 µM [inhibitor, single point]"
4,Cc1cc(Br)ccc1SCC(=O)OCC(O)=C(C#N)c1nc2ccccc2[nH]1,active: 4.61 µM
5,COc1cc(CNC(=O)c2ccc(NC(=O)N3CCCCc4ccccc43)cc2)cc(OC)c1OC,active: 18.4 µM
6,COc1n[nH]c(C(=O)Nc2nc3ccccc3s2)c1[N+](=O)[O-],inactive
7,CN(C)C(=O)c1cccc(-c2cnc3c(NC=O)cc(-c4ccccc4F)cn23)c1,"inconclusive: 23.1 µM [inhibitor, partial curve, poor fit]"
8,CC(C)CN(C(=O)CN(C)S(=O)(=O)c1ccc(Cl)cc1)C1CCS(=O)(=O)C1 (stereo not drawn),inactive
9,COc1ccc(-c2cc(-c3cccs3)nc3sc(C#N)c(N)c23)cc1,inactive
10,C(=N\N1CCN(Cc2ccccc2)CC1)/c1ccccc1,"inconclusive: 23.1 µM [inhibitor, single point]"
11,CC1(C)CC(=O)C(/C=N/n2c(C(F)(F)F)nc3ccccc3c2=O)=C(O)C1,active: 16.4 µM
12,COc1ccc(-c2nc(N)n(C(=O)c3ccccc3Cl)n2)cc1,"inconclusive: 29.1 µM [inhibitor, single point]"
13,Clc1ccccc1-c1nc(-c2ccccc2)n[nH]1,"inconclusive: 20.6 µM [inhibitor, partial curve]"
14,CCCn1c(=O)c2c(nc3n2CCS3)n(C)c1=O,inactive
15,CCn1c2ccccc2c2nnc(SCC(=O)N3CC(C)OC(C)C3)nc21 (stereo not drawn),"inconclusive: 18.4 µM [inhibitor, single point]"
16,Cc1ccc(NC(=O)c2sc(Cl)nc2-c2ccccc2)cc1,"inconclusive: 20.6 µM [inhibitor, single point]"
17,COCCNC(=O)C1(C)Cc2c(-c3cccc(C(F)(F)F)c3)ccnc2O1 (stereo not drawn),active: 9.2 µM
18,CCOc1ccc(C(=O)n2cc(C(=O)OC)c3ccccc32)cc1,"inconclusive: 14.6 µM [inhibitor, partial curve, poor fit]"
19,CCN(CC)c1ccc(C(=O)n2cnc3ccccc32)cc1,"inconclusive: 29.1 µM [inhibitor, partial curve, poor fit]"
20,CSc1nc(O)c(/C=C2\C=Nc3ccccc32)[nH]1,"inconclusive: 9.2 µM [inhibitor, partial curve]"
21,Cc1c(Cl)cccc1NC(=S)NCCC(C)C,"inconclusive: 25.9 µM [inhibitor, single point]"
22,O=C(c1cccs1)N1CCCc2cc(NS(=O)(=O)c3cc(F)ccc3F)ccc21,"inconclusive: 25.9 µM [inhibitor, single point]"

row,SMILES,Potency
1,CCc1ccccc1NC(=O)C1CCCN(S(=O)(=O)c2ccc3[nH]c(=O)ccc3c2)C1 (stereo not drawn),inactive
2,CCCn1nc(NC(C)=O)c2cc3cccc(C)c3nc21,"inconclusive: 23.1 µM [inhibitor, single point]"
3,O=C(NCCc1ccc(Cl)cc1)c1cnc2sc(N3CCCC3)nn2c1=O,active: 6.51 µM
4,CCOC(=O)c1ccc(-n2c(O)c(/C=N/NC(=O)C3COc4ccccc4O3)c3ccccc3c2=O)cc1 (stereo not drawn),"inconclusive: 29.1 µM [inhibitor, single point]"
5,CCOc1ccc(NC(=O)CN(C)CC(=O)Nc2cc(Cl)ccc2C#N)cc1OCC,"inconclusive: 16.4 µM [inhibitor, partial curve]"
6,c1ccc(-c2nnc(-c3ccccc3)c(-c3c[nH]c4ccccc34)n2)cc1,"inconclusive: 29.1 µM [inhibitor, single point]"
7,Cc1cccc(OCCC(=O)Nc2cc(S(=O)(=O)N3CCCCC3)ccc2N2CCOCC2)c1,"inconclusive: 29.1 µM [inhibitor, single point]"
8,Cc1cc(Cl)ccc1C(O)c1ncc(-c2ccc(Cl)cc2)[nH]1 (stereo not drawn),active: 13 µM
9,CN(C)c1ccc(/C=N/n2c(-c3cccnc3)n[nH]c2=S)cc1,inactive
10,CC(=O)c1cccc(NC(=O)CCn2nc(C)c(S(=O)(=O)N3CCCCC3)c2C)c1,"inconclusive: 29.1 µM [inhibitor, single point]"
11,CCOC(=O)c1c(NC(=O)CN2CCCc3ccccc32)sc(C)c1CC,"inconclusive: 29.1 µM [inhibitor, single point]"
12,Oc1ccccc1-c1nc2cnccn2c1Nc1ccc(Cl)cc1,"inconclusive: 20.6 µM [inhibitor, single point]"
13,COc1ccc(CNC(=O)CN2C(=O)COc3ccccc32)c(OC)c1,inactive
14,CCCCNC(=O)c1ccc2nc(CC)c(N(CCC(C)C)CCN(C)C)n2c1,"inconclusive: 29.1 µM [inhibitor, single point]"
15,O=C(NCC1COc2ccccc2O1)C1CCN(S(=O)(=O)c2ccc(Cl)cc2)CC1 (stereo not drawn),"inconclusive: 29.1 µM [inhibitor, single point]"
16,CCOc1cc(-n2ncc(C#N)c2N)nc(SC)n1,inactive
17,C[C@@H]1CC[C@H](Cc2ccc(-n3cccc3)cc2)N1C(=O)OC(C)(C)C,"inconclusive: 25.9 µM [inhibitor, single point]"
18,COc1ccc(/C=C/c2nnc(NC(=O)CC(C)C)s2)cc1,"inconclusive: 2.59 µM [inhibitor, partial curve]"
19,COc1ccc(C(=O)CC(=O)C(=O)NCCc2cccc(C)c2)cc1,"inconclusive: 29.1 µM [inhibitor, single point]"
20,CCOC(=O)C[C@H]1c2cc(F)ccc2S(=O)(=O)N1Cc1ccc(OC)cc1,"inconclusive: 22.4 µM [inhibitor, single point] and inconclusive: 29.1 µM [inhibitor, single point]"
21,O=C1[C@H]2[C@@H](c3ccc(F)cc3)N3C(=O)N(c4cccc(Cl)c4)C(=O)[C@@]3(Cc3ccccc3)[C@H]2C(=O)N1C1CCCCC1,"inconclusive: 14.6 µM [inhibitor, partial curve]"
